Assay [1] deals with T1, PYL9 fused to the GAL4 DNA binding domain (Arabidopsis) (UniProt Q84MC7).
T1 sequence: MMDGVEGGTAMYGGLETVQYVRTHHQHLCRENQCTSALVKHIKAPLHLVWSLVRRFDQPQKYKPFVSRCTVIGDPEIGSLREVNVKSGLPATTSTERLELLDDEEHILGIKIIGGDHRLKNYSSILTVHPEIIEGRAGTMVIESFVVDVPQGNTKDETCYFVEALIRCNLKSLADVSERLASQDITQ
Kind of assay: two-hybrid; yeast two-hybrid; PYLs fused to the GAL4 DNA binding domain as baits, MYBs fused to the GAL4-activating domain as preys; growth on medium lacking His, Leu and Trp, with or without 5 μM ABA; several independent clones, dilutions spotted and photographed after 5 days.

Amino acid sequences for entries named in this document (tags omitted).
UniProt Q9FDW1: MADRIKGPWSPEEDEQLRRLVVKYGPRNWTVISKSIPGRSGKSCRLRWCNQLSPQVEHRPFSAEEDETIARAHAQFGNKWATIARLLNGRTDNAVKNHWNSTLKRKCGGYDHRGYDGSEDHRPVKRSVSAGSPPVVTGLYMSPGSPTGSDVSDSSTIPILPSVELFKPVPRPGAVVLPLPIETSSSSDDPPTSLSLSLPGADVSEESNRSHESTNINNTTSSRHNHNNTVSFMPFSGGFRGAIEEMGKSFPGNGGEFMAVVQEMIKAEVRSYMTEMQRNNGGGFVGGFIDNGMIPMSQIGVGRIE
UniProt Q8VZQ2: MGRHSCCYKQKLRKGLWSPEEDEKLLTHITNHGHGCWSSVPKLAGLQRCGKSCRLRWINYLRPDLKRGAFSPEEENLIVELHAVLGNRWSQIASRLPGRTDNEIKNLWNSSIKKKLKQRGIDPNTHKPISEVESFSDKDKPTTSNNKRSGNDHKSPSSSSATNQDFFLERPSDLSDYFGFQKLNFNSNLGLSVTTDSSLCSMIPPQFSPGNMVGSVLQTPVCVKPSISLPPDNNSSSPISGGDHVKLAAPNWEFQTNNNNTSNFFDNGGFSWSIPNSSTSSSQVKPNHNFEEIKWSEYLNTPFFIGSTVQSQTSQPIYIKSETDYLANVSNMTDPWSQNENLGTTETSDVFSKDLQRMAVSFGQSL
UniProt O23160: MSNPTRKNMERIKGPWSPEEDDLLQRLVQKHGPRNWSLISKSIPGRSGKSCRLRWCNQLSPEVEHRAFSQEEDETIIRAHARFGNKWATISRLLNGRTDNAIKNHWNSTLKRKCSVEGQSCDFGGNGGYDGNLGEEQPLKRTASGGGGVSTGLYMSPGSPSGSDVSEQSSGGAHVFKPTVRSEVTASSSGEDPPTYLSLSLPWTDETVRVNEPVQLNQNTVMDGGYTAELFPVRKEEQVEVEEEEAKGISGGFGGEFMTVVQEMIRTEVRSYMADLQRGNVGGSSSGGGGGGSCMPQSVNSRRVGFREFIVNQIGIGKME
UniProt Q9SN12: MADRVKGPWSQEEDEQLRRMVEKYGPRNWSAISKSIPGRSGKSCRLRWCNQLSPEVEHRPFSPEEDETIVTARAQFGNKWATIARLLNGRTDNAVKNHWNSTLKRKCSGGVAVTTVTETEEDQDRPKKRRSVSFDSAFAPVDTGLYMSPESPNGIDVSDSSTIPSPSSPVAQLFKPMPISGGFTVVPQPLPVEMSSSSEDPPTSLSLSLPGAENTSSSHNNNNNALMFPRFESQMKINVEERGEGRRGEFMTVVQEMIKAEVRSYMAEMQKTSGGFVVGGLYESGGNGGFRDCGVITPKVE

Assay [2] deals with T2, PYL6 fused to the GAL4 DNA binding domain (Arabidopsis) (UniProt Q8S8E3).
T2 sequence: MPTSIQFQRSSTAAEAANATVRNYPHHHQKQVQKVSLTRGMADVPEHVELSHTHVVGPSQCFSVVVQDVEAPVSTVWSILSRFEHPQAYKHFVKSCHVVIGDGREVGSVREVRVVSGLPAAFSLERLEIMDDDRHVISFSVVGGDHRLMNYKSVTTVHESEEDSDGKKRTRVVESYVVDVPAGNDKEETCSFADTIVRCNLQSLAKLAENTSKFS
Described as above.

For assay [3], the target named is T3, PYL8 fused to the GAL4 DNA binding domain (Arabidopsis) (UniProt Q9FGM1).
T3 sequence: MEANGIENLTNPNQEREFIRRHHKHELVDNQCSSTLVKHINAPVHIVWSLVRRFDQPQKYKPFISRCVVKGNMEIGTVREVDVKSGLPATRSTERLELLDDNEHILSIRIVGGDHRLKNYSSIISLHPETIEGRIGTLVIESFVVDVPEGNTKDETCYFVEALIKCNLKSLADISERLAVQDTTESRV
The description is as above.

Assay [4] has as its target PYL9 fused to the N-terminal domain of firefly luciferase (Arabidopsis) (UniProt Q84MC7). The assay can be described thus: split reporter; firefly luciferase (LUC) complementation; PYL9-nLUC co-transformed with MYB-cLUC into Arabidopsis Col-0 wild-type protoplasts.

These are yes or no findings as the source states them, for the method shown. For part of these data: Binding seen in cells or lysates may run through a third protein. Some results given as binding are weak or reduced against the parent protein; the word gives no strength. For part of these data: Sequences can lack the tags named with a protein.

Take “MYB44 fused to the GAL4-activating domain (from UniProt Q9FDW1 1-305)”: the binding entry is on record as “binds weakly” in assay [1], “no binding” in assay [2] and “binds” in assay [3].

With “MYB61 fused to the C-terminal domain of firefly luciferase (from UniProt Q8VZQ2 1-366)”, in assay [4], the binding entry is reported as “no binding”.

Consider “MYB73 fused to the GAL4-activating domain (from UniProt O23160 1-320)”, for which the binding result in assay [2] is on record as “no binding”; in assay [3], “binds”.

For the substance “MYB DOMAIN PROTEIN 77 (MYB77) fused to the GAL4-activating domain (from UniProt Q9SN12 1-301)”, the results for the binding result in assay [1], in assay [2] and in assay [3] were “binds weakly”, “no binding” and “binds”, respectively.

These data come from paper PMC4891660.
